Source: PubChem BioAssay AID488969 (Vanderbilt High Throughput Screening Facility, 2010)
In all, about 110,000 compounds were measured (“z-score”: median about -0.1, highest 2% from about 2 on). Some of the results follow.

Each compound was assayed against Metabotropic glutamate receptor 8 (Rattus norvegicus) (UniProt P70579) (assay: rat mGluR8 modulators via GIRK flux, primary screen, cell-based, thallium flux, HTS (AID 488969)). Conditions: HEK293 rat mGluR8, GIRK (G protein-gated inwardly rectifying potassium channel) thallium flux, FluoZin2; at 10 µM; stronger effect = higher value; submaximal glutamate (EC20) added with thallium.
UniProt P70579, sequence (P70579 whole entry, looked up): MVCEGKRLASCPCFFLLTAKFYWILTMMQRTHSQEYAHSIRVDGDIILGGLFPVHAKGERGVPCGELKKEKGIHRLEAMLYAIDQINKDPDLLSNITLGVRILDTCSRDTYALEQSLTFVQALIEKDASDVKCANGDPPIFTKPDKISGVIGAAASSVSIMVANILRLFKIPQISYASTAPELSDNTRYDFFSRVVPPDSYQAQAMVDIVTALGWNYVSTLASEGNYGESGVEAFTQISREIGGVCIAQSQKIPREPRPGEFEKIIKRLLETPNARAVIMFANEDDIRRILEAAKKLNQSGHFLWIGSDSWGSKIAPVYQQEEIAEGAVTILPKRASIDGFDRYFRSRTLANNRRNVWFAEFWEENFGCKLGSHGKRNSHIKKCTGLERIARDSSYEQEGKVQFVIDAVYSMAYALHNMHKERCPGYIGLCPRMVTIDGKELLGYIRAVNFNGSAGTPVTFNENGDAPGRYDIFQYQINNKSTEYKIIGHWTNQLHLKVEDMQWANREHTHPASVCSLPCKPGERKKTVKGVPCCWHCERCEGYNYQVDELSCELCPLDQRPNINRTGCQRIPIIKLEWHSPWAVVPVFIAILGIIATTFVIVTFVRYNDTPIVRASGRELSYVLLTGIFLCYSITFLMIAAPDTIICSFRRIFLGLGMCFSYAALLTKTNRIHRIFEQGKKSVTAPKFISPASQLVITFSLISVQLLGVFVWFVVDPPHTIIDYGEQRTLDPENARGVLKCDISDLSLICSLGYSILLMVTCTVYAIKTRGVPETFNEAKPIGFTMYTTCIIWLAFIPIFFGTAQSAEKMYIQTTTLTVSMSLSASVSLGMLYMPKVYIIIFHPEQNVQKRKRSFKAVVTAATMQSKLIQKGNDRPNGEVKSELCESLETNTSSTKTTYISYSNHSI
With `Clc1cccc(Cl)c1/C=C/c1nc2ccccc2[nH]1` the z-score was 0.0702.
Work on `COc1ccc(CCNC(=O)c2sc(=S)n(C)c2N)cc1` yielded a z-score of 0.0297.
Compound `CCOc1ccc(N(CC(=O)N/N=C/c2cc([N+](=O)[O-])ccc2Cl)S(C)(=O)=O)cc1` has a z-score of -0.365.
In the case of `CN(C)CCOC(=O)c1cccc(Br)c1`, the z-score is reported as -0.158.
For `Cc1ccc(S(=O)(=O)N/N=C/c2ccc(C(=O)O)cc2)cc1`, the z-score was -0.132.
`O=C(O)c1ccccc1C(=O)Nc1nccs1` showed a z-score of -0.213.
For `Cc1ccc(C(c2c(C)[nH][nH]c2=O)c2c(C)[nH][nH]c2=O)cc1[N+](=O)[O-]`, the z-score was -0.0186.
`CCn1cc(C(=O)N2CCOCC2)c(=O)c2cc(S(=O)(=O)N(C)C)ccc21` was tested, and the z-score was -0.0559.
Compound `O=C(CSc1n[nH]c(-c2ccccc2Br)n1)NCCN1C(=O)CSC1=O` has a z-score of 0.0185.
For `Cc1cccc(C(=O)NC(=S)Nc2ccc(S(=O)(=O)N3CCN(C)CC3)cc2)c1`, the z-score was 0.935.
Work on `CCC(Cc1ccccc1)NC(=O)CCn1cccc1` (centres undefined) yielded a z-score of -0.203.
Work on `Cc1cnc(NC(=O)CSc2ncn(-c3ccccc3)n2)s1` yielded a z-score of -0.143.
In the case of `CCOC(=O)NC(=O)CSc1nnnn1-c1ccc(Cl)cc1`, the z-score is reported as -0.258.
`CCOC(=O)c1c(NC(NC(C)=O)C(Cl)(Cl)Cl)sc2c1CCCC2` (centres undefined) showed a z-score of -2.34.
Work on `O=C(c1ccccc1NS(=O)(=O)c1ccc(Cl)cc1)N1CCc2ccccc21` yielded a z-score of -0.000723.
`FC(F)(F)C1=CC(c2ccc(Br)cc2)=NCCN1` gave a z-score of 0.15.
`CC(=C/c1ccc(C(C)C)cc1)/C=N/NC(=O)Cn1nc(C)cc1C` showed a z-score of -0.122.
Compound `CCOC(=O)N1CCN(Cc2nc(N)nc(Nc3ccc(C)cc3)n2)CC1` has a z-score of -0.0413.
With `Cc1cc(Cl)ccc1NC(=O)Nc1c(C)n(-c2ccccc2)c(=O)n1C` the z-score was -0.461.
For `CCCCc1oc2c(c(=O)c1C)C(=O)CC(c1ccccc1)C2` (centres undefined), the z-score was -1.66.
`CCC1CCCCN1CCCNC(=O)COc1cc(=O)n(C)c2ccccc12` (centres undefined) was tested, and the z-score was 0.76.
For `Cc1cccc(NC(=O)COc2nsnc2N2CCOCC2)c1`, the z-score was -1.18.
`CNC(=O)NC(=S)NC(=O)c1ccc(OC)cc1` showed a z-score of -0.157.
`COc1ccc(C(=O)COC(=O)C2CCN(S(=O)(=O)c3cccc4cccnc34)CC2)cc1` gave a z-score of -0.246.
Compound `Cc1csc(SCCn2c(N3CCOCC3)nc3c2c(=O)[nH]c(=O)n3C)n1` has a z-score of -0.532.
Compound `O=C(Cn1nc(-c2ccc(Cl)cc2)ccc1=O)NCCN1CCOCC1` has a z-score of -0.317.
In the case of `Cc1ccc(-n2c(=O)c3sccc3n(CC(=O)NCc3ccco3)c2=O)cc1`, the z-score is reported as -1.34.
Compound `CCn1c(C(=O)N2CCC(C(=O)N3CCN(c4ccccn4)CC3)CC2)cc2sccc21` has a z-score of 0.181.
For `CS(=O)(=O)N(CCc1ccccc1)CC(=O)N1CCN(Cc2ccc3c(c2)OCO3)CC1`, the z-score was -0.238.
With `Cc1ccc(N2C(=O)CC(Sc3nc(-c4ccccc4)c4cc(Cl)ccc4n3)C2=O)c(C)c1` (centres undefined) the z-score was -0.386.
With `O=C(O)Cc1ccc(NC(=O)C2CC=CCC2C(=O)O)cc1` (centres undefined) the z-score was -0.373.
With `CN1CCN(C(=O)NC2CCCCC2)CC1` the z-score was -0.173.
Work on `COCCNC(=O)C(c1ccc(C)o1)N(Cc1ccc(F)cc1)C(=O)Cn1nnc2ccccc21` (centres undefined) yielded a z-score of 1.39.
`CC1(C)CC(=O)C(C(=S)Nc2ccccc2)=C(NCCN2CCOCC2)C1` gave a z-score of -0.0406.
For `COc1ccc(C2C(C#N)=C(C)NC3=C2C(=O)c2ccccc23)cc1` (centres undefined), the z-score was -0.286.
Work on `COc1c2ccoc2nc2c(OC)c(OCC(O)C(C)(C)O)ccc12` (centres undefined) yielded a z-score of -0.185.
Compound `N#C/C(=C(/O)CN1CCOCC1)c1nc2ccccc2s1` has a z-score of 0.136.
`Cc1ccc2c(c1)-c1cc(C)nn1C(c1ccc3c(c1)OCO3)N2` (centres undefined) showed a z-score of -0.166.
`O=C(Nc1cc(=O)[nH]c2ncnn12)c1ccccc1Cl` showed a z-score of -0.632.
`CC1=CC(=NOC(=O)c2cccc([N+](=O)[O-])c2)C=C(C)C1=O` gave a z-score of 0.0996.
For `Cc1ccc(C(=O)NC(=S)Nc2cccc(NC(=O)c3ccccc3Cl)c2)cc1[N+](=O)[O-]`, the z-score was 0.277.
Compound `CC1(C)CC(=O)C2=C(C1)N(c1ccc(F)cc1)C(=O)CC2c1ccccc1` (centres undefined) has a z-score of -0.242.
`COc1ccc(C(=O)NC(=S)NCc2ccco2)cc1OC` was tested, and the z-score was 0.277.
With `CN1/C(=C\C(=O)c2cccnc2Cl)C(C)(C)c2ccccc21` the z-score was -0.384.
`CCOC(=O)c1ccc(NC(=O)CN2CCc3ccccc3C2)cc1` showed a z-score of -0.455.
For `CCCc1cc(C(=O)NCc2ccco2)no1`, the z-score was -0.204.
`CC1=C(CC(=O)c2ccccc2)C(=O)c2ccccc2C1=O` was tested, and the z-score was -0.213.
Compound `COc1ccc(-c2noc(CCC(=O)Nc3cc(OC)ccc3OC)n2)cc1` has a z-score of 0.948.
Work on `Cn1cnnc1SC1c2cccc3cccc(c23)C1NS(=O)(=O)c1ccc(Cl)cc1` (centres undefined) yielded a z-score of 0.152.
`O=C(NNC1=NCCC1)c1cccc(S(=O)(=O)N2CCCCC2)c1` was tested, and the z-score was 0.0465.
`Cc1cc(-c2ccc(N3CCOCC3)cc2)nc2ccccc12` showed a z-score of -0.464.
`O=C(Nc1nn(Cc2ccccc2F)cc1Br)c1cccs1` gave a z-score of -0.929.
In the case of `Cc1ccc(NC(=S)NC2CCN(Cc3ccccc3)CC2)c(C)c1`, the z-score is reported as 0.353.
Compound `CC(C)n1c2ccccc2c2nc3ccccc3nc21` has a z-score of -0.47.
`Cn1c(SCC(N)=O)nnc1C1CCN(S(=O)(=O)c2ccccc2C(F)(F)F)CC1` showed a z-score of -0.191.
`CCC(=O)N1N=C(c2ccc(NS(C)(=O)=O)cc2)CC1c1ccc(C)cc1` (centres undefined) was tested, and the z-score was -0.3.
`Cc1cc(C)nc(NS(=O)(=O)c2ccc(NC(=O)CN3C(=O)S/C(=C\c4ccccc4)C3=O)cc2)n1` showed a z-score of -0.203.
`COC(=O)C(C)Sc1nnc(Cc2cc(=O)[nH]c(=O)[nH]2)n1-c1cc(C)ccc1C` (centres undefined) gave a z-score of 0.0555.
In the case of `COc1ccc(C2/C(=C(/O)c3ccc(C)cc3)C(=O)C(=O)N2C)cc1` (centres undefined), the z-score is reported as -0.11.
With `O=c1/c(=C/c2ccccn2)sc2nc3ccccc3n12` the z-score was 0.539.
For `CCCCn1c(N2CCC(Cc3ccccc3)CC2)nc2c1c(=O)[nH]c(=O)n2C`, the z-score was 0.326.
`CCOC(=O)c1c(NC(C)=O)sc2c(OC(C)=O)cccc12` was tested, and the z-score was 0.184.
For `O=C(CN1C(=O)c2cccc3cccc1c23)NCc1cccnc1`, the z-score was -0.0427.
`S=c1[nH]nc(-c2ccccc2)o1` showed a z-score of -0.0494.
For `Cc1ccc(N(Cc2ccccc2F)S(C)(=O)=O)cc1C`, the z-score was 0.0251.
Compound `CCCc1nc(SCC(=O)N2CCC(Cc3ccccc3)CC2)c2c(=O)n(C)c(=O)n(C)c2n1` has a z-score of 1.98.
`Cc1ccc(N=C2NC(=O)CS2)c(C)c1` was tested, and the z-score was -0.0325.
`CN(C(=O)COC(=O)COc1ccc(Cl)cc1)C1CCCCC1` gave a z-score of -1.21.
`CC(/C=N/NC(=O)CSc1nnc(SCc2ccccc2)s1)=C\c1ccco1` showed a z-score of -0.249.
For `Cc1ccc(-n2[nH]c(C)c(C=NC34CN5CN(CN(C5)C3)C4)c2=O)cc1C`, the z-score was -0.126.
`Cc1ccc(C2CC(=O)Nc3cc4c(cc32)OCO4)o1` (centres undefined) gave a z-score of -0.134.
Compound `CCOC(=O)Cc1csc(NC(=O)c2ccc(Cl)nc2)n1` has a z-score of 0.0254.
`CCn1c(SCC(=O)N/N=C/C=C/c2ccccc2[N+](=O)[O-])nnc1-c1ccccc1` gave a z-score of -0.243.
`CCOC(=O)C1CCCN(C(=O)CN2CCN(Cc3ccc(Cl)cc3)C2=O)C1` (centres undefined) gave a z-score of -0.371.
In the case of `Cc1cc(=O)n(C)c(=O)n1CCCNc1ccccc1`, the z-score is reported as 0.349.
In the case of `CCSc1cc(N2CC(C)OC(C)C2)nc(-c2ccccc2Cl)n1` (centres undefined), the z-score is reported as -0.199.
`Cc1ccc(S(=O)(=O)NCCCN(C)C)cc1` was tested, and the z-score was 2.95.
For `N#Cc1c(-c2ccc(Cl)cc2Cl)nc2n(c1=O)CCS2`, the z-score was -0.773.
For `Cc1ccc(-n2nnnc2SCC(=O)NNC(=O)c2ccco2)cc1C`, the z-score was -0.193.
`COC(=O)c1cc2ccsc2n1Cc1nc(-c2ccc(OC)cc2)oc1C` gave a z-score of -0.672.
`COc1ccc(N2C(=O)CC(N3CCN(c4ccc(S(C)(=O)=O)cc4)CC3)C2=O)cc1` (centres undefined) gave a z-score of 0.0874.
`CNC(=O)c1sc(SC)cc1-c1ccc(Cl)cc1` gave a z-score of -0.487.
For `N#C/C(=C\c1c(Cl)cccc1Cl)c1nc2ccccc2o1`, the z-score was -0.471.
Work on `COc1ccccc1NC(=O)CSc1nc2ccccc2cc1Cc1ccccc1` yielded a z-score of -0.195.
`COC(=O)c1c(NC(NC(=O)C(C)(C)C)C(Cl)(Cl)Cl)sc2c1CCC2` (centres undefined) gave a z-score of -0.0333.
With `CCCCN(CC)C(=O)c1ccc2c(c1)OCO2` the z-score was -0.883.
Work on `Cc1ccccc1-n1c(SCc2ccccn2)nc2n[nH]c(C)c2c1=N` yielded a z-score of -2.33.
`COCCN(Cc1cc2cc(C)cc(C)c2nc1Cl)C(=O)Nc1ccccc1` showed a z-score of -0.621.
In the case of `CC1(C)Cc2c(ccc3ccccc23)/C(=C/C#N)N1`, the z-score is reported as -0.163.
`O=C(Cc1ccc(-n2cccc2)cc1)N1CCN(c2ccccc2F)CC1` was tested, and the z-score was -0.527.
Compound `O=C(Nc1ccc(Cl)cn1)c1ccccc1F` has a z-score of 0.159.
`COc1ccc(-n2c(N)c(C(=O)NCc3ccco3)c3nc4ccccc4nc32)cc1` gave a z-score of -0.202.
Compound `Cc1ccc(-n2c(C)cc(/C=N/NC(=O)CN(c3ccc(C)cc3C)S(C)(=O)=O)c2C)cc1` has a z-score of 0.00989.
Work on `CCC1CCCCN1CCCNC(=O)C1CCN(S(=O)(=O)N2CCCCC2)CC1` (centres undefined) yielded a z-score of 1.23.
`Cc1ccccc1-c1nc(CN2CCC(C(=O)NCc3cccnc3)CC2)c(C)o1` showed a z-score of 0.023.
In the case of `O=C(c1ccc([N+](=O)[O-])cc1)N1CCN(C(=O)c2cccs2)CC1`, the z-score is reported as 0.0319.
For `O=C(COc1ccc(Cl)cc1)NCc1nnc(SCC(=O)NC2CCCC2)o1`, the z-score was 0.0955.
`Cc1ccc(CNC(=O)CN2CCN(Cc3ccc(Cl)cc3)C2=O)cc1` was tested, and the z-score was 0.18.
Compound `CCOc1ccc(N(CC)C(=O)COc2cc(=O)n(CC)c3ccccc23)cc1` has a z-score of -0.88.
`CNC(=O)C1CCCN1S(=O)(=O)c1ccc(OC)cc1` (centres undefined) gave a z-score of -0.204.
In the case of `Cc1csc(NC(=O)CCNC(=O)c2ccc([N+](=O)[O-])cc2)n1`, the z-score is reported as 0.939.
In the case of `CN(C)S(=O)(=O)c1ccc(NC(=O)COc2ncnc3c2cnn3-c2ccccc2)cc1`, the z-score is reported as -0.521.
`O=C(NC1CCCCC1)c1cc2nc(-c3ccco3)cc(C(F)(F)F)n2n1` gave a z-score of 0.238.
Work on `Cn1c(CN2CCOCC2)nnc1SCC(=O)NC1CCCCC1` yielded a z-score of -0.936.
Work on `N#CC1=C(SCC(=O)Nc2ccccc2)NC(=O)CC1c1ccco1` (centres undefined) yielded a z-score of -1.22.
`O=C(NCc1ccc(N2CCCC2=O)cc1)Nc1cccc2ccccc12` gave a z-score of -0.109.
In the case of `CCCCn1c(SCc2nc3ccccc3s2)nc2cc(S(N)(=O)=O)ccc21`, the z-score is reported as -0.0671.
Work on `COc1cccc(C(=O)OCCCN(C)C)c1` yielded a z-score of 0.592.
`O=C(CSc1nnnn1C1CCCC1)NCc1ccc2c(c1)OCO2` showed a z-score of 0.249.
